The whole screen tested about 94,000 compounds, of which about 20 (0.02%) were called active. The shares of active, inactive and inconclusive entries below differ from those in the screen. The call rests on the fitted dose curve; in most records, active means well fitted activation curve with a large enough effect; inconclusive means small, poorly fitted or top-dose-only effect; inactive means flat fitted curve, though single readings scatter. No potency is given beside an inconclusive call; the fits are too rough.
Assay: qHTS of alpha-syn Inhibitors: NCGC Sytravon Library Screen; on growth rescue (activation): 0% is about no effect
Details: S. cerevisiae alpha-synuclein toxicity rescue, BacTiter-Glo growth, 24 h; growth rescue (activation): at 46.1 µM (top of the series)
Outline: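 Growth restoration measured by BacTiter-Glo luminescence after 24 hr at 30 deg C; alpha-synuclein yeast, raffinose-pregrown to mid-log, were added at OD600=0.02 in galactose medium onto pinned compounds.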
Potency means the concentration at half of the fitted maximal effect; tags describe the fitted curve by direction and shape.

Compound | growth rescue (activation) | Potency
Cc1ccc(S(=O)(=O)NCCC(=O)Nc2ccc(C)cc2C(=O)c2ccccc2)cc1 | inconclusive: 47.5% [activator] | –
Cc1nc2cc(C(=O)O)ccc2n1-c1ccc(C(C)C)cc1 | – | inconclusive [activator, full curve]
COc1ccc(C(=O)NCCSc2c(C)[nH]c3ccccc23)cc1 | – | inconclusive [activator, single point]
COc1ccc(-n2cc(C(=O)NC(C)c3ccccc3)c3ccccc3c2=O)cc1 (stereo not given) | inactive: 1.64% | –
O=[N+]([O-])c1cccc2c(S(=O)(=O)N3CCCCC3)cccc12 | inconclusive: 39.4% [activator] | –
Cc1oc(-c2ccccc2F)nc1CS(=O)(=O)CC(=O)N1CCN(c2ccc(Cl)cc2)CC1 | inactive: 14.3% | –
O=C(Nc1cc2c(cc1C(=O)c1ccc(Br)cc1)OCCO2)c1ccc(Cl)cc1 | – | inconclusive [activator, single point]
Cc1ccc(NC(=O)c2cc(S(=O)(=O)NC3CCCCCC3)ccc2F)cc1F | – | active: 25.1 µM
O=C(CSc1ccccc1)N1CCc2c([nH]c3ccccc23)C1c1ccc(Cl)cc1 (stereo not given) | – | inconclusive [activator, single point]
CCOc1ccc(NC(=O)Cn2c(=O)n(CCCS(=O)(=O)C3CCCCC3)c(=O)c3ccccc32)cc1 | inactive: -5.33% | –
COc1ccc2c(c1)CCC1(C)CC(=O)C(Br)=C21 (stereo not given) | inconclusive: 72.3% [activator] | –
COc1cccc(C2C=C(c3ccccc3)Nc3c(C(=O)Nc4ccccc4)cnn32)c1OC (stereo not given) | – | inconclusive [activator, single point]
CCOC(=O)c1cc(S(=O)(=O)NCc2cccc(Cl)c2)[nH]n1 | inactive: 2.72% | –
CCc1sc(Nc2cccc(Cl)c2)nc1-c1cc2cccc(OC)c2oc1=O | – | inconclusive [activator, partial curve]
Cc1ccc(CNC(=O)CCc2c(C)nc3c(-c4ccc(F)cc4)c(C)nn3c2C)cc1 | – | inconclusive [activator, single point]
COc1ccc2c(c1)c1c(c(=O)n(-c3ccccc3C)c(=O)n1CC(N)=O)n2C | inactive: -5.2% | –
Clc1ccc(CSc2ccc(-c3ccccn3)nn2)cc1 | inconclusive: 78.5% [activator] | –
Cc1ccc(CSCCC(=O)N2CCN(c3ccc(F)cc3)CC2)cc1 | – | inconclusive [activator, single point]
CC(C)CCOc1ccc(Cn2c(=O)sc3ccccc32)cc1 | inactive: 7.01% | –
CCCOc1ccc(Cc2c(COCC)[nH]c(=S)[nH]c2=O)cc1 | inactive: 12.3% | –

— PubChem BioAssay AID1347070 (National Center for Advancing Translational Sciences (NCATS), 2019)
